± gives the standard deviation. Over roughly 3,000 sequences, “pre-steady-state target cleavage rate” has its median near 0.0079; the highest 2% begin near 0.2. The entries are a selection whose mix differs from that of the whole data set.
system: MILI (PIWIL2) piRISC loaded with piRNA #2 (26 nt); assay: pre-steady-state target cleavage rate (min^-1); MIWI and MILI are mouse PIWI proteins and EfPiwi is from a freshwater sponge; tags in brackets are library labels; higher = faster piRNA-guided slicing of the target; details: guide: piRNA #2 5'p-UUAGGUAACCCAGUAGAUCCAGAGGA; auxiliary factor: 500 nM mouse GTSF1
In short: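 The method was Cleave-'n-Seq, in which uncleaved targets from a transcribed, DNA-blocked target RNA library were sequenced after exposure to active affinity-purified piRISC carrying one synthetic guide, with or without GTSF1 partner protein. Reactions contained 0.1 nM library, 1 nM piRISC and, where present, 500 nM GTSF1 in HEPES–potassium acetate buffer at 33 °C for 0–8 or 0–960 min. Reads were normalised to depth and to weakly complementary targets, three trials were pooled, and k3 was capped at 0.0001 min^-1. The pre-steady-state cleavage rate came from a burst-and-steady-state fit.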

For CUUAACCUCUGGAUCUACAGGGUUACCUUA, which “pre-steady-state target cleavage rate” value is on record?
The value was 0.084 ± 0.019.

For CUUAAGGUCUGCAUGUACUGGGUUACCUAA, which “pre-steady-state target cleavage rate” value is on record?
The value was 0.0391 ± 0.018.

Which “pre-steady-state target cleavage rate” value does the source give for “CUUAUCCUCUGGAUCUACUGGGUUACCUAU [g2:g26:cont:t1U]” here?
Its value is 0.127 ± 0.023.

Which “pre-steady-state target cleavage rate” value does the source give for CUUAAGGAGUGGAUCUACUGGGUUACCAUA here?
Its value is 0.0171 ± 0.0071.

How did the “pre-steady-state target cleavage rate” value turn out when CUUAAGGUGUGGAACUACUGGGUUACCUAA was run?
Its value is 0.0113 ± 0.01.

For CUUAAGGAGAGCAUCUACUGGGUAACCUAA, which “pre-steady-state target cleavage rate” value is on record?
The value was 0.00752 ± 0.0046.

How did the “pre-steady-state target cleavage rate” value turn out when CUUAAGGAGUGGAUCUACUGGGUUUACCUAA was run?
The value was 0.0223 ± 0.0077.

With CUUAUCCUCUGGAUCUACUGGGUUACCUGAA as the sequence, how does the “pre-steady-state target cleavage rate” value read?
Its value is 0.384 ± 0.17.

With CUUAAGGUCUGGAUGUACUGGGUUACGUAA as the sequence, how does the “pre-steady-state target cleavage rate” value read?
The value was 0.0111 ± 0.01.

Which “pre-steady-state target cleavage rate” value does the source give for CUUAAGGAGUGGAUCUACUGGGUCACCUAA here?
Its value is 0.00943 ± 0.0049.

For CUUAACGCUCUGGAUCUACUGGGUUACCUAA, which “pre-steady-state target cleavage rate” value is on record?
Its value is 0.0744 ± 0.029.

For CUUAUCCUCUGGAUCUACUGGGAUACCUUA, which “pre-steady-state target cleavage rate” value is on record?
Its value is 0.129 ± 0.041.

CUUAUCGCUCUGGAUCUACUGGGUUACCUAA was tested. Which “pre-steady-state target cleavage rate” value did it give?
The value was 0.0427 ± 0.016.

CUUAUCCUCUGGAUCUACUGCGUAACCUAA was tested. Which “pre-steady-state target cleavage rate” value did it give?
Its value is 0.0113 ± 0.0053.

With CUUAUCCUCUGCAUCAACUGGGUUACCUAA as the sequence, how does the “pre-steady-state target cleavage rate” value read?
Its value is 0.0996 ± 0.024.

For CUUAUCCUGUGGAUCUACUGGGUAACCUAA, which “pre-steady-state target cleavage rate” value is on record?
Its value is 0.0153 ± 0.0062.

With CUUAAGGAGUGGAUCUACAGCGUUACCUAA as the sequence, how does the “pre-steady-state target cleavage rate” value read?
The value was 0.0072 ± 0.0036.

CUUAAGGAGUGGAUCUAGCUGGGUUACCUAA was tested. Which “pre-steady-state target cleavage rate” value did it give?
The value was less than 0.0001.

CUUAUCCUCUGGAUCAACUGGGUAACCUAA was tested. Which “pre-steady-state target cleavage rate” value did it give?
Its value is 0.0185 ± 0.0057.

For CUUAAGCAGAGGAUCUACUGGGUUACCUAA, which “pre-steady-state target cleavage rate” value is on record?
The value was 0.0164 ± 0.0047.

For CUUAAGGACUGCAUCUACUGGGUUACCUUA, which “pre-steady-state target cleavage rate” value is on record?
The value was 0.0139 ± 0.011.

For CUUAAGCUCUGGAUCUACUGGGAUUCCUAA, which “pre-steady-state target cleavage rate” value is on record?
The value was 0.007 ± 0.0043.

CUUAAGGUCUCCAUCUACUGGGUUACCUAA was tested. Which “pre-steady-state target cleavage rate” value did it give?
The value was 0.00394 ± 0.0037.

For CUUAAGGAGACCUUCUACUGUGGUUACCUAA, which “pre-steady-state target cleavage rate” value is on record?
Its value is less than 0.0001.

With CUUAAGGAGUGGAUCUACUGGGUUACCUGA as the sequence, how does the “pre-steady-state target cleavage rate” value read?
The value was 0.0222 ± 0.013.

Which “pre-steady-state target cleavage rate” value does the source give for CUUAAGGAGUUGGAUCUACUGGGUUACCUAA here?
The value was 0.0386 ± 0.012.

CUUAUCCUCUGGAAUCUACUGGGUUACCUAA was tested. Which “pre-steady-state target cleavage rate” value did it give?
The value was 0.156 ± 0.035.

With CUUAUCCUCUGGAUCUACCGGGUUACCUAA as the sequence, how does the “pre-steady-state target cleavage rate” value read?
The value was 0.064 ± 0.02.

“CUUAAGCUCUGGAUCUACUGGGUUAGGAUA [g6:g24:cont:t1A]” was tested. Which “pre-steady-state target cleavage rate” value did it give?
Its value is 0.00619 ± 0.0041.

For CUUAACCUCUGGAUCUUCAGGGUUACCUAA, which “pre-steady-state target cleavage rate” value is on record?
The value was 0.0729 ± 0.013.

CUUAACCUCUGGAUCUACUGGGUCACCUAA was tested. Which “pre-steady-state target cleavage rate” value did it give?
Its value is 0.0651 ± 0.021.

With CUUAAGCUCUGGAACUACUGGGUUAGCUAA as the sequence, how does the “pre-steady-state target cleavage rate” value read?
The value was 0.0581 ± 0.021.

With CUUAAGGUCUGGAUCUACUGGGUAACCUUA as the sequence, how does the “pre-steady-state target cleavage rate” value read?
Its value is 0.00985 ± 0.0043.

With CUUAAGCUCUGGAUCUAGUGGGUAACCUAA as the sequence, how does the “pre-steady-state target cleavage rate” value read?
The value was 0.00908 ± 0.0032.

With CUUAAGGACUGCAUCUACUGGGUUACCUAA as the sequence, how does the “pre-steady-state target cleavage rate” value read?
The value was 0.0213 ± 0.015.

For CUUAAGGAGACCUACUACUGGGUUACACUAA, which “pre-steady-state target cleavage rate” value is on record?
Its value is less than 0.0001.

CUUAAGGAGUCGAUCUACUGGGUUACCUAA was tested. Which “pre-steady-state target cleavage rate” value did it give?
The value was 0.0049 ± 0.0041.

CUUAUCCUCUGCAUCUACUGGGUUACCUUA was tested. Which “pre-steady-state target cleavage rate” value did it give?
Its value is 0.466 ± 0.13.

How did the “pre-steady-state target cleavage rate” value turn out when CUUAACCUGUGGAUCUACUGGGUAACCUAA was run?
The value was 0.0162 ± 0.0075.

For CUUAAGCUCUGGAUCUACUGGCUAACCUAA, which “pre-steady-state target cleavage rate” value is on record?
The value was less than 0.0001.

Which “pre-steady-state target cleavage rate” value does the source give for CUUAUCCUGACGAUCUACUGGGUUACCUAA here?
Its value is 0.056 ± 0.019.

How did the “pre-steady-state target cleavage rate” value turn out when CUUAUCCACUGCAUCUACUGGGUUACCUAA was run?
The value was 0.0992 ± 0.015.

With CUUAAGGAGACCUAGAUGACGGUGUACCUAA as the sequence, how does the “pre-steady-state target cleavage rate” value read?
Its value is less than 0.0001.

CUUAUCCUCUGCAACUACUGGGUUACCUAA was tested. Which “pre-steady-state target cleavage rate” value did it give?
The value was 0.093 ± 0.015.

With CUUAAGGUCUGGUUCUACUGGGUUUCCUAA as the sequence, how does the “pre-steady-state target cleavage rate” value read?
The value was 0.016 ± 0.01.

How did the “pre-steady-state target cleavage rate” value turn out when “CUUAAGCUCUGGAUCUACUGGGUUACCUAA [g2:g24:cont:t1A]” was run?
The value was 0.0702 ± 0.018.

How did the “pre-steady-state target cleavage rate” value turn out when CUUAUCCUGUGGAUCUACUGCGUUACCUAA was run?
The value was 0.00803 ± 0.0045.

For CUUAAGGUCUGGAUCUACAGCGUUACCUAA, which “pre-steady-state target cleavage rate” value is on record?
The value was 0.0157 ± 0.0035.

CUUAACCACUGGAUCUUCUGGGUUACCUAA was tested. Which “pre-steady-state target cleavage rate” value did it give?
Its value is 0.0833 ± 0.016.

Which “pre-steady-state target cleavage rate” value does the source give for CUUAUCCUCUGGAACUUCUGGGUUACCUAA here?
Its value is 0.117 ± 0.031.

For CUUAACCUCUUGAUCUACUGGGUUACCUAA, which “pre-steady-state target cleavage rate” value is on record?
The value was 0.162 ± 0.026.

With CUUAACCACUGGAACUACUGGGUUACCUAA as the sequence, how does the “pre-steady-state target cleavage rate” value read?
Its value is 0.0782 ± 0.019.

With “CUUAACCUCUGGAUCUACUGGGUUACCUAG [g2:g25:cont:t1G]” as the sequence, how does the “pre-steady-state target cleavage rate” value read?
The value was 0.119 ± 0.032.

CUUAACCUCUGGAUGUACUGGGUUACGUAA was tested. Which “pre-steady-state target cleavage rate” value did it give?
Its value is 0.0343 ± 0.014.

With CUUAACCUCUGGCUCUACUGGGUUACCUAA as the sequence, how does the “pre-steady-state target cleavage rate” value read?
Its value is 0.8 ± 0.2.

With CUUAUUCUCUGGAUCUACUGGGUUACCUAA as the sequence, how does the “pre-steady-state target cleavage rate” value read?
Its value is 0.0752 ± 0.011.

With CUUAAGGUCUGGAUCUACUGGGAUUCCUAA as the sequence, how does the “pre-steady-state target cleavage rate” value read?
Its value is 0.0054 ± 0.004.

CUUAAGCUCUGGAUCUUCUGGGUUAGCUAA was tested. Which “pre-steady-state target cleavage rate” value did it give?
The value was 0.0297 ± 0.011.

For CUUAAGCUCUGGAUCACUGGGUUACCUAA, which “pre-steady-state target cleavage rate” value is on record?
Its value is 0.00491 ± 0.004.

With CUUAUCCUGUGGAUCUACUGGGUUAGCUAA as the sequence, how does the “pre-steady-state target cleavage rate” value read?
Its value is 0.0064 ± 0.0042.

CUUAAGGACUGGAUCUUCUGGGUUACCUUA was tested. Which “pre-steady-state target cleavage rate” value did it give?
Its value is 0.0144 ± 0.012.

For CUUAAGCUCGGAUCUACUGGGUUACCUAA, which “pre-steady-state target cleavage rate” value is on record?
The value was 0.053 ± 0.022.

How did the “pre-steady-state target cleavage rate” value turn out when CUUAAGCUCUGGAUGUUCUGGGUUACCUAA was run?
The value was 0.052 ± 0.014.

With CUUAAGGUCUGGAUUCUACUGGGUUACCUAA as the sequence, how does the “pre-steady-state target cleavage rate” value read?
Its value is 0.0964 ± 0.026.

For CUUAAGGAGACCUAGUACUGGGUUACCGAA, which “pre-steady-state target cleavage rate” value is on record?
The value was less than 0.0001.

With CUUAACCUGUGGAUCUUCUGGGUUACCUAA as the sequence, how does the “pre-steady-state target cleavage rate” value read?
Its value is 0.0605 ± 0.015.

With CUUAACCACUGGAUCUACUGGGUUACCAAA as the sequence, how does the “pre-steady-state target cleavage rate” value read?
The value was 0.0546 ± 0.013.

With CUUAACCUCUGGAUCUAGUGGGAUACCUAA as the sequence, how does the “pre-steady-state target cleavage rate” value read?
Its value is 0.0146 ± 0.0055.

Which “pre-steady-state target cleavage rate” value does the source give for CUUAUCCUCUGGAUCUACUGCGUUACCUAA here?
The value was 0.0178 ± 0.0049.

Which “pre-steady-state target cleavage rate” value does the source give for CUUAUCCUCAGGAUCUACUGGGUAACCUAA here?
Its value is 0.0299 ± 0.0094.

CUUAAGCUCUGCAUCAACUGGGUUACCUAA was tested. Which “pre-steady-state target cleavage rate” value did it give?
The value was 0.0246 ± 0.009.

Source: the supplement of paper PMC10338343
